{"source": "paper PMC4336329", "about": "(PLoS ONE, 2015)", "note": "The whole screen tested about 310,000 compounds, of which about 2,200 (0.71%) showed an effect of 50% or more. The effect is printed as a negative number. This is one part of the list."}
{"molecular_target": "human ether-à-go-go-related gene (hERG) potassium channel (human, UniProt Q12809)", "sequence (Q12809 whole entry, looked up)": "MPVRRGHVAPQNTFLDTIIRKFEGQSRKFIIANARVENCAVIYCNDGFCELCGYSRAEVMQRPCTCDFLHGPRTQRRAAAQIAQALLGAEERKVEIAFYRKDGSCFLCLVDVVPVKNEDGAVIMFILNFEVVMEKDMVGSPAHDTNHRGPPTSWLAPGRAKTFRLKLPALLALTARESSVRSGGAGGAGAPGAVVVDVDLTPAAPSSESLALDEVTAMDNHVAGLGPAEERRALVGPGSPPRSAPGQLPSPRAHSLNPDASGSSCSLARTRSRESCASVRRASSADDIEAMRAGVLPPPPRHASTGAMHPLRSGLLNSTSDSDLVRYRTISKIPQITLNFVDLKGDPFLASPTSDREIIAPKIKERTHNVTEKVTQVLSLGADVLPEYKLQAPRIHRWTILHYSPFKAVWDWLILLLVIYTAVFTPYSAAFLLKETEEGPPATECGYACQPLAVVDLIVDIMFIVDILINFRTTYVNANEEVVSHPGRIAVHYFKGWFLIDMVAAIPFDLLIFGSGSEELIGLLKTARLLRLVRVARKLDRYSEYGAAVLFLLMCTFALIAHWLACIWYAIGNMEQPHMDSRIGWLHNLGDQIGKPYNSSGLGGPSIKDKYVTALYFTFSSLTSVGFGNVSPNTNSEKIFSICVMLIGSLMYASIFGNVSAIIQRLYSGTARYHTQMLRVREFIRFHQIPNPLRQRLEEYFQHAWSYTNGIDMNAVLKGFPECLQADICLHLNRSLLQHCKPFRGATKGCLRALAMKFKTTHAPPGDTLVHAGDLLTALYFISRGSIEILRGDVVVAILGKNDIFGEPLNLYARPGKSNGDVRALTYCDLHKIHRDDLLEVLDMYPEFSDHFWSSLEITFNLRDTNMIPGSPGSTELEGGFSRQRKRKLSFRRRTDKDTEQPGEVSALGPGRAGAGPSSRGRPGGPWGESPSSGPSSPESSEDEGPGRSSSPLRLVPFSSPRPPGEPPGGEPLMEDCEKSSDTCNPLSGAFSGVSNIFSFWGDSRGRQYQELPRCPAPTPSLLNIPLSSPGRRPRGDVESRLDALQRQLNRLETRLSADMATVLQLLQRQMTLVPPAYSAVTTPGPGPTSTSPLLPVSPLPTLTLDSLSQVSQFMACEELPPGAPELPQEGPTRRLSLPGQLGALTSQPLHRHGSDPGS", "assay": "primary screen, population patch clamp on CHO cells stably expressing hERG", "units": {"hERG current change (%, negative = inhibition) at 1uM": "%"}}
{"smiles": "Cc1ccc(C2C3=C(CC(C)(C)CC3=O)N(CCN3CCOCC3)C3=C2C(=O)CC(C)(C)C3)cc1", "hERG current change (%, negative = inhibition) at 1uM": -8.72}
{"smiles": "C#CCNC(=O)C1=C[C@@H](c2ccc(C#C)cc2)[C@H](CCCO)[C@@H](OCC)O1", "hERG current change (%, negative = inhibition) at 1uM": -0.679}
{"smiles": "COc1cc(OC)c(C2=NOC(C(=O)NCCc3ccccc3)C2)cc1Cl", "note": "(centres unmarked)", "hERG current change (%, negative = inhibition) at 1uM": -9.25}
{"smiles": "CN(CCOc1ccccc1)CC(=O)Nc1ccc(Cl)c(S(=O)(=O)N(C)C)c1.O=C(O)C(=O)O", "hERG current change (%, negative = inhibition) at 1uM": 6.46}
{"smiles": "CN(Cc1ccccc1)C(=O)c1[nH]cnc1C(=O)NCc1ccccc1", "hERG current change (%, negative = inhibition) at 1uM": 6.17}
{"smiles": "Cc1cccc(-n2cc[nH]c2=S)c1C", "hERG current change (%, negative = inhibition) at 1uM": 12.5}
{"smiles": "COc1cc2c(cc1OC)CN(C(=S)Nc1ccc(OC(F)F)cc1)CC2", "hERG current change (%, negative = inhibition) at 1uM": -8.71}
{"smiles": "Cc1ccc(NC(=O)Cc2ncon2)cc1Cl", "hERG current change (%, negative = inhibition) at 1uM": 2.75}
{"smiles": "N#Cc1cccc(CS(=O)(=O)c2ccc(Cl)cc2)c1", "hERG current change (%, negative = inhibition) at 1uM": 8.63}
{"smiles": "CS(=O)(=O)c1cccc(C(=O)Nc2ccc(-c3nc4ccccc4[nH]3)cc2)c1", "hERG current change (%, negative = inhibition) at 1uM": 13.2}
{"smiles": "COc1ccc(S(=O)(=O)N(CCc2ccccc2)CC(=O)O)cc1OC", "hERG current change (%, negative = inhibition) at 1uM": 14.1}
{"smiles": "COc1cc2c(cc1OC)CN(c1ccc(F)cc1[N+](=O)[O-])CC2", "hERG current change (%, negative = inhibition) at 1uM": 7.41}
{"smiles": "O=C(O)/C=C/c1ccc(-c2cccc(C(F)(F)F)c2)o1", "hERG current change (%, negative = inhibition) at 1uM": 9.47}
{"smiles": "CCc1cc(C(=O)NNC(=S)NC2CCCCC2)cs1", "hERG current change (%, negative = inhibition) at 1uM": 7.88}
{"smiles": "CCn1ccnc1CN1CCc2c([nH]c3ccccc23)C1CC(C)C", "note": "(centres unmarked)", "hERG current change (%, negative = inhibition) at 1uM": -28.6}
{"smiles": "COC(=O)c1ccccc1NC(=O)CSc1nc(-c2ccco2)cc(C(F)(F)F)n1", "hERG current change (%, negative = inhibition) at 1uM": 4.49}
{"smiles": "COc1ccc(NC(=O)CC(C)C)c(OC)c1", "hERG current change (%, negative = inhibition) at 1uM": 14.4}
{"smiles": "CCOP(=O)(OCC)c1ccc2c(c1)C(=O)c1ccccc1CC2", "hERG current change (%, negative = inhibition) at 1uM": 11.6}
{"smiles": "Cc1ccc(S(=O)(=O)NC(C)C(=O)NC2CCCCCC2)cc1", "note": "(centres unmarked)", "hERG current change (%, negative = inhibition) at 1uM": -2.05}
{"smiles": "COC(=O)c1sccc1-c1ccc(/C=N/OC(=O)c2cccs2)o1", "hERG current change (%, negative = inhibition) at 1uM": 8.32}
{"smiles": "O=C(NC(Cc1ccccc1)C(=O)NC1CC1)OCc1ccccc1", "note": "(centres unmarked)", "hERG current change (%, negative = inhibition) at 1uM": 19.2}
{"smiles": "O=C(CSc1cn(Cc2ccccc2)c2ccccc12)N1CCOCC1", "hERG current change (%, negative = inhibition) at 1uM": -4.92}
{"smiles": "CCOC(=O)c1cnc2c(C)cc(Cl)cc2c1NCCCN1CCOCC1", "hERG current change (%, negative = inhibition) at 1uM": 10.3}
{"smiles": "COc1cc(C(=O)OCC(=O)c2cc(C)n(C)c2C)cc(NC(=O)c2ccco2)c1OC", "hERG current change (%, negative = inhibition) at 1uM": 16.2}
{"smiles": "CS(=O)(=O)N1CCCC(C(=O)NCc2ccco2)C1", "note": "(centres unmarked)", "hERG current change (%, negative = inhibition) at 1uM": 10.9}
{"smiles": "O=C(Nc1ccc2c(c1)OCCO2)c1c(F)c(F)c(F)c(F)c1F", "hERG current change (%, negative = inhibition) at 1uM": 14.7}
{"smiles": "COc1cccc(NC(=S)N(CCCN2CCOCC2)Cc2cn(C)c3ccccc23)c1", "hERG current change (%, negative = inhibition) at 1uM": -0.736}
{"smiles": "O=C(NCCOc1ccccc1)c1ccccc1", "hERG current change (%, negative = inhibition) at 1uM": 7.22}
{"smiles": "COc1ccc(N=Cc2c(O)n(C)c(=O)n(C)c2=O)cc1", "hERG current change (%, negative = inhibition) at 1uM": 13.3}
{"smiles": "COc1ccc(NC(=O)c2cc(OC)c(OC)c(OC)c2)cc1S(=O)(=O)N1CCCCC1", "hERG current change (%, negative = inhibition) at 1uM": 13.8}
{"smiles": "CN(C)/N=C/c1cc([N+](=O)[O-])ccc1O", "hERG current change (%, negative = inhibition) at 1uM": 6.07}
{"smiles": "O=C(NCc1nnc2n1CCCCC2)c1ccc(Cl)cc1Cl", "hERG current change (%, negative = inhibition) at 1uM": 7.1}
{"smiles": "COc1ccc(-c2csc(NC(=O)COC(=O)Cc3ccc(Cl)cc3Cl)n2)cc1", "hERG current change (%, negative = inhibition) at 1uM": 3.85}
{"smiles": "COc1cccc(/C=N/Nc2ncnc3scc(-c4ccccc4)c23)c1O", "hERG current change (%, negative = inhibition) at 1uM": 3.17}
{"smiles": "COc1ccc(N2Cc3ccc(OC)c(OC)c3C2=O)cc1", "hERG current change (%, negative = inhibition) at 1uM": 18.3}
{"smiles": "CO/N=C/NC(=O)c1c(OC)ccnc1Oc1cccc(C(F)(F)F)c1", "hERG current change (%, negative = inhibition) at 1uM": 5.83}
{"smiles": "COc1ccc2[nH]c(=O)c(NC(N)=S)nc2c1", "hERG current change (%, negative = inhibition) at 1uM": 10.1}
{"smiles": "CCN1/C(=C/c2ccc3cc(C)ccc3[n+]2CC)Sc2ccc3sccc3c21.[I-]", "hERG current change (%, negative = inhibition) at 1uM": 10.9}
{"smiles": "COc1ccc(/C=N/Nc2cc(C)nc3ccc(OC)cc23)c(OC)c1", "hERG current change (%, negative = inhibition) at 1uM": 11.2}
{"smiles": "COc1ccc(CNCC(O)(c2ccc(Cl)cc2)c2ccc(Cl)cc2)cc1", "hERG current change (%, negative = inhibition) at 1uM": 5.56}
{"smiles": "O=C(O)CCCCCNC(=O)OCC1c2ccccc2-c2ccccc21", "hERG current change (%, negative = inhibition) at 1uM": 9.82}
{"smiles": "Cc1cc(C)c2[nH]c(O)c(N=NC3=NC(=O)CS3)c2c1", "hERG current change (%, negative = inhibition) at 1uM": -4.49}
{"smiles": "COCCN(C(=O)COC(=O)c1cccnc1SC)c1c(N)n(Cc2ccccc2)c(=O)[nH]c1=O", "hERG current change (%, negative = inhibition) at 1uM": 7.78}
{"smiles": "Cc1ccc(-c2nc3ccccc3s2)cc1S(=O)(=O)N1CCOCC1", "hERG current change (%, negative = inhibition) at 1uM": -3.04}
